Assay results: PubChem BioAssay (NCATS)
“And” between values parts separate entries of the source, which are not always exact repeats. Equal values may be shown once. The inconclusive results got no clear call from the source; some entries with a clear call stand among them for comparison. For part of these data: Potencies of inconclusive entries are doubtful fits and often do not repeat. The source made the active and inactive calls. Calls follow the shape of the dose curve; as a rule, active = well fitted curve in the direction sought with a large enough effect; inconclusive = small, poorly fitted or top-dose-only effect, or another doubt; inactive = no such curve, though single readings can be large; an effect the other way counts as inactive or inconclusive.

Columns and labels:
[1] = Viability qHTS for spleen associated tyrosine kinase inhibitor (SYKi) naive MV4-11 cells (AID 1963823); details: MV4-11 AML viability, CellTiter-Glo luminescence, 72 h; viability (% of control): at 45 µM (top of the series); also: nearly all actives have a fitted effect of over 40% in size; also: potency is read from the fitted curve at half-maximal effect
Procedure, shortened: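 Luminescence from CellTiter-Glo, developed 10 min at room temperature, gave viability of MV4-11 cells never exposed to SYK inhibitor. Cells (500/well) had been incubated with compounds for 72 hr under standard culture conditions.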

[2] = Viability qHTS for spleen associated tyrosine kinase inhibitor (SYKi) drug resistant MV4-11 cells (AID 1963824); also: potency is read from the fitted curve at half-maximal effect; nearly all actives have a fitted effect of over 35% in size
Procedure, shortened: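 SYK-inhibitor-resistant MV4-11 AML cells were seeded at 500 per well onto compound and cultured 72 hours (37 °C, 5% CO2). CellTiter-Glo was then added, and after 10 min at room temperature, luminescence gave viability.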

[3] = Quantitative highthroughput screen to assess conditional lethalithy of NOMO1 cells grown in RPMI1640 with untreated serum (RPMI+s) (AID 1963876); details: NOMO1 AML cells in RPMI+serum, CellTiter-Glo viability, 48 h; viability: at 45.8 µM (top of the series); also: nearly all actives have a fitted effect of over 35% in size; also: potency is read from the fitted curve at half-maximal effect;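 as to Viability: 100% = DMSO wells and 0% = empty wells without cells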
Procedure, shortened: (§1)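 Each medium arm—HPLM with 10% dialyzed FBS, or RPMI1640 with 5 mM glucose and 10% untreated or dialyzed FBS—was screened against an 11-point, 3-fold compound titration for 48 h at 37 °C, with CellTiter-Glo luminescence as endpoint.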

[4] = Quantitative highthroughput screen to assess conditional lethalithy of NOMO1 cells grown in RPMI1640 with dialyzed fetal bovine serum (RPMI+ds) (AID 1963877); also: nearly all actives have a fitted effect of over 30% in size; also: potency is read from the fitted curve at half-maximal effect;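 as to Viability: 100% = DMSO control wells and 0% = empty wells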
Procedure, shortened: as §1

[5] = Quantitative highthroughput screen to assess conditional lethalithy of P12 Ichikawa cells grown in Human Plasma-Like Medium with dialyzed fetal bovine serum (HPLM+ds) (AID 1963879); details: Potency: viability; also: nearly all actives have a fitted effect of over 35% in size; also: potency is read from the fitted curve at half-maximal effect
Procedure, shortened: as §1

[6] = Quantitative highthroughput screen to assess conditional lethalithy of SEM cells grown in RPMI1640 with dialyzed fetal bovine serum (RPMI+ds) (AID 1963884); details: SEM B-ALL cells, RPMI+dialyzed FBS, CellTiter-Glo viability, 48 h; viability: at 45.8 µM (top of the series); also: nearly all actives have a fitted effect of over 35% in size; also: potency is read from the fitted curve at half-maximal effect;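 as to Viability: 100% = DMSO control wells and 0% = empty wells without cells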
Procedure, shortened: as §1

[7] = Cellular viability qHTS for adrenocortical cancer (ACC) cell line SW-13 (AID 1963989); details: SW-13 ACC cells viability, CellTiter-Glo, 48 h; activity (max response): stronger effect = lower value; also: nearly all actives have a fitted effect of over 65% in size; also: potency is read from the fitted curve at half-maximal effect;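 as to activity (max response): cells grown in serum-free medium with ITS supplement; % is scaled to controls: 0 for no effect and ±100 for the full control effect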
Procedure, shortened: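 Here, serum-free SW-13 cultures were dosed up to 46 uM. Following 48 h, ATP-dependent luminescence (CellTiter-Glo) reported viable cells, and logistic modeling produced IC50 values.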

[8] = Cellular viability qHTS for adrenocortical cancer (ACC) cell line NCI-H295R (AID 1963990); details: CellTiter-Glo ATP luminescence, 48 h; activity change, negative = viability loss: at 46.1 µM (top of the series); also: potency is read from the fitted curve at half-maximal effect; nearly all actives have a fitted effect of over 60% in size
Procedure, shortened: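 Viability of NCI-H295R after 48 h of treatment (final up to 46 uM) measured through cellular ATP luminescence.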

[9] = Quantitative highthroughput screen to assess conditional lethalithy of P12 Ichikawa cells grown in RPMI1640 with untreated serum (RPMI+s) (AID 1963881); details: Potency: viability; also: nearly all actives have a fitted effect of over 35% in size; also: potency is read from the fitted curve at half-maximal effect;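 as to Viability: 100% = DMSO wells and 0% = empty wells without cells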
Procedure, shortened: as §1

[10] = Quantitative highthroughput screen to assess conditional lethalithy of NOMO1 cells grown in Human Plasma-Like Medium with dialyzed fetal bovine serum (HPLM+ds) (AID 1963878); details: NOMO1 AML cells in HPLM+ds, CellTiter-Glo viability, 48 h; viability: at 45.8 µM (top of the series)
Procedure, shortened: as §1

[11] = Quantitative highthroughput screen to assess conditional lethalithy of P12 Ichikawa cells grown in RPMI1640 with dialyzed fetal bovine serum (RPMI+ds) (AID 1963880); details: Potency: P12-Ichikawa viability
Procedure, shortened: as §1

[12] = Quantitative highthroughput screen to assess conditional lethalithy of SEM cells grown in Human Plasma-Like Medium with dialyzed fetal bovine serum (HPLM+ds) (AID 1963882); also: nearly all actives have a fitted effect of over 35% in size
Procedure, shortened: as §1

[13] = Quantitative highthroughput screen to assess conditional lethalithy of SEM cells grown in RPMI1640 with unreated serum (RPMI+s) (AID 1963883); details: SEM B-ALL cells, CellTiter-Glo viability, 48 h; viability: at 45.8 µM (top of the series)
Procedure, shortened: as §1
Tags tell the direction and shape of the fitted curve.

Which Potency [1] does the source give for `CC(C)c1nc(CN(C)C(=O)N[C@H](C(=O)N[C@@H](Cc2ccccc2)C[C@H](O)[C@H](Cc2ccccc2)NC(=O)OCc2cncs2)C(C)C)cs1` here?
Its Potency is inconclusive: 21.1 µM [cytotoxic, single point] and inconclusive: 29.1 µM [cytotoxic, single point].

And the Potency [2]?
The Potency was inconclusive: 23.7 µM [cytotoxic, partial curve] and inconclusive: 14.6 µM [cytotoxic, partial curve].

What about the Potency [3] of the same compound?
The Potency was “inactive”.

What about the Potency [4] of the same compound?
The Potency was “inactive”.

What about the Potency [5] of the same compound?
Its Potency is “inactive”.

What about the Potency [6] of the same compound?
The Potency was “inactive”.

What about the Potency [7] of the same compound?
Its Potency is inconclusive: 18.4 µM [cytotoxic, single point].

And the Potency [8]?
Its Potency is inconclusive: 32.6 µM [cytotoxic, partial curve, poor fit].

For `COc1ccnc(CS(=O)c2nc3ccc(OC(F)F)cc3[nH]2)c1OC` (configuration not stated), which Potency [1] is on record?
The Potency was “inactive”.

And the Potency [2]?
Its Potency is inconclusive: 16.8 µM [cytotoxic, partial curve, poor fit] and inconclusive: 29.5 µM [cytotoxic, single point].

And the Potency [3]?
Its Potency is “inactive”.

And the Potency [4]?
The Potency was “inactive”.

And the Potency [9]?
Its Potency is “inactive”.

And the Potency [6]?
The Potency was “inactive”.

And the Potency [8]?
The Potency was inconclusive: 13 µM [cytotoxic, partial curve, poor fit].

Which Potency [1] does the source give for `O=C1CCCC(=O)C1C(=O)c1ccc(C(F)(F)F)cc1[N+](=O)[O-]` here?
Its Potency is “inactive”.

What about the Potency [2] of the same compound?
The Potency was inconclusive: 9.34 µM [cytotoxic, partial curve, poor fit].

What about the Potency [3] of the same compound?
Its Potency is “inactive”.

What about the Potency [4] of the same compound?
Its Potency is “inactive”.

What about the Potency [10] of the same compound?
The Potency was “inactive”.

What about the activity (max response) [7] of the same compound?
Its activity (max response) is inactive: 6.97%.

With `CCOC(=O)C=C[C@H](C[C@@H]1CCNC1=O)NC(=O)[C@@H](CC(=O)[C@@H](NC(=O)c1cc(C)on1)C(C)C)Cc1ccc(F)cc1` as the compound, how does the Potency [1] read?
Its Potency is “inactive”.

And the Potency [2]?
The Potency was inconclusive: 11.8 µM [cytotoxic, partial curve, poor fit].

And the Potency [3]?
The Potency was “inactive”.

And the Potency [4]?
Its Potency is “inactive”.

What about the Potency [5] of the same compound?
Its Potency is “inactive”.

What about the Potency [9] of the same compound?
Its Potency is “inactive”.

For `CNC(=O)c1c(F)cccc1Nc1nc(Nc2cc3c(cc2OC)CCN3C(=O)CN(C)C)nc2[nH]ccc12`, which Potency [1] is on record?
The Potency was active: 2.59 µM and active: 4.68 µM.

What about the Potency [2] of the same compound?
The Potency was active: 2.91 µM and active: 4.68 µM.

And the Potency [3]?
The Potency was inconclusive: 37.2 µM [cytotoxic, single point].

And the Potency [4]?
Its Potency is inconclusive: 33.2 µM [cytotoxic, single point].

And the Potency [5]?
The Potency was inconclusive: 18.7 µM [cytotoxic, partial curve].

What about the Potency [11] of the same compound?
The Potency was inconclusive: 23.5 µM [cytotoxic, single point].

What about the Potency [9] of the same compound?
Its Potency is inconclusive: 33.2 µM [cytotoxic, single point].

And the Potency [7]?
The Potency was inconclusive: 28.2 µM [cytotoxic, single point].

For `COc1cccc(-c2ccc(NC(=O)C3=C(C(=O)O)CCC3)c(F)c2)c1`, which Potency [1] is on record?
Its Potency is inconclusive: 4.61 µM [cytotoxic, full curve] and inconclusive: 3.72 µM [cytotoxic, full curve].

What about the Potency [2] of the same compound?
Its Potency is inconclusive: 6.51 µM [cytotoxic, full curve] and inconclusive: 3.72 µM [cytotoxic, full curve].

What about the Potency [3] of the same compound?
Its Potency is “inactive”.

And the Potency [4]?
The Potency was inconclusive: 33.2 µM [cytotoxic, single point].

What about the Potency [5] of the same compound?
The Potency was active: 16.6 µM.

And the Potency [11]?
The Potency was inconclusive: 16.6 µM [cytotoxic, partial curve].

And the Potency [9]?
Its Potency is inconclusive: 18.7 µM [cytotoxic, partial curve].

And the Potency [12]?
Its Potency is “inactive”.

And the Potency [13]?
The Potency was inconclusive: 33.2 µM [cytotoxic, single point].

And the Potency [6]?
Its Potency is inconclusive: 20.9 µM [cytotoxic, partial curve].

And the Potency [7]?
Its Potency is inconclusive: 7.94 µM [cytotoxic, full curve].

And the Potency [8]?
Its Potency is inconclusive: 1.26 µM [cytotoxic, partial curve].

With `Nc1ncn([C@H]2C[C@H](O)[C@@H](CO)O2)c(=O)n1` as the compound, how does the Potency [1] read?
Its Potency is inconclusive: 8.41 µM [cytotoxic, partial curve] and inconclusive: 1.18 µM [cytotoxic, full curve].

What about the Potency [2] of the same compound?
Its Potency is inconclusive: 1.19 µM [cytotoxic, full curve] and active: 4.68 µM.

What about the Potency [3] of the same compound?
The Potency was inconclusive: 11.8 µM [cytotoxic, partial curve].

What about the Potency [4] of the same compound?
Its Potency is inconclusive: 14.8 µM [cytotoxic, partial curve].

What about the Potency [5] of the same compound?
The Potency was inconclusive: 1.87 µM [cytotoxic, full curve].

And the Potency [11]?
The Potency was inconclusive: 1.87 µM [cytotoxic, full curve].

And the Potency [9]?
Its Potency is inconclusive: 1.87 µM [cytotoxic, full curve].

And the Potency [13]?
Its Potency is active: 2.64 µM.

What about the Potency [6] of the same compound?
Its Potency is inconclusive: 1.18 µM [cytotoxic, full curve].

And the activity (max response) [7]?
Its activity (max response) is inactive: -13% and inactive: -6.12%.
